The list shows a part of the results. These are enrichments in a pooled selection; single values are uncertain.
Test system: SARS-CoV-2 3CLpro (nsp5)
Test: substrate phage enrichment score (protease-eluted vs HEPES control, +1 offset) (ratio); higher = better cleaved substrate
Settings: selection round: 3; protease elution time: 0.5 h
Description: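 Random heptapeptide substrate phage display (M13 pIII fusion, heptapeptide between an N-terminal biotinylated AviTag GLNDIFEAQKIEWHE and pIII; phages immobilised on streptavidin) eluted by cleavage with 50 nM protease in 20 mM HEPES at 37 °C. Selected phages were NGS sequenced, and the enrichment score is (reads in protease sample + 1)/(reads in HEPES blank-selection control + 1).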

Substance | substrate phage enrichment score
RACGNRS | 1.75
LNVSELK | 1.2
VELQSDR | > 45
QTSRWPT | 11
RSCKEQT | > 29
VKLRNPN | 1.05
VAQLQAR | > 21
ITERDMR | 1.08
DNFLEMN | 6.6
NVLEPTE | 1.36
SGPCKLQ | > 171
EPQWSNP | 4.86
CGSAAAH | 1.67
VESSKLQ | > 23
REQTRAL | 12
KAMQGTT | 12.5
TGVLQRK | 4.13
KSAAHHH | 2.91
EKVPRLQ | > 104
ALRDAPL | > 28
ASCATPV | 2.57
RAPACQD | 1.22
KAAHHHH | 0.629

Substance | substrate phage enrichment score
TGSGAAE | 1.18
SDGTQEQ | 2.83
QHVTSMP | 0.211
NRTPYIM | 20.5
SPSCSTQ | 1.09
PCHGNYR | > 45
IQGGSAA | 1.65
RHMTTDS | > 55
RNSRLQA | > 70
LGMCTLQ | > 191
GVWVQCH | 0.3
ALCPRAD | 1.14
LATDAGW | 12
ACGPVAS | > 21
TPSQRCL | 8.33
GGSAAAH | 0.772
TGTVMSP | > 32
VVRPHII | 1.05
DGTVLQS | > 23
GMAAHHH | 1.06
CREASAQ | 5
QLPMLQA | > 113
LCPTKHT | 2.33

Substance | substrate phage enrichment score
VSAAAHH | 0.711
AEAAHHH | 0.889
EARTNHR | 2.2
PSTVIPG | 3.14
TCTTPMS | 4.6
DERVWTN | 6.33
SNWTVCR | 8.75
RCHLQGG | > 77
AAAHQHH | 0.902
RCHSLIQ | > 29
DVGDLSS | > 27
RRSAVLH | > 36
VSYLQSC | > 48
SHSVPEL | 0.333
LNPHSHA | > 32
EPQASGS | 5.5
VARNCTR | 3.83
KQETYSH | > 31
WYFQGGS | 0.7
SKCCLQS | > 29
PVFPPEM | > 21
EAPERGL | > 38
GLKRGSC | > 38

Substance | substrate phage enrichment score
SQGPSTD | 9
SRRGPNN | 3.67
PVEATCR | > 22
SIFRVVV | 1
CIFRVVV | 1.75
GTSTKLQ | > 26
MHLNGSC | 2.57
PEGTLLQ | > 22
PQSRKDR | > 34
LSNAKQG | > 24
KSLLQSG | > 28
TYSITQS | > 40
SKPLSTS | 2.71
AVAHHHH | 0.667
ARTSELQ | > 130
AYFQGGS | 4.04
RRDEQLP | > 25
SAAAHKH | 1.06
AVISWPG | 3.85
SCPLGSR | 1.67
EQNFQGG | 9
LSLSLPS | 0.81
KRSTTLI | > 34

Substance | substrate phage enrichment score
NPHIEPR | 10
KDVVLQA | > 26
PLSAQLQ | > 53
AMTACGK | > 92
LIKPTMQ | > 23
DLYFQGG | 0.4
VNAAAHH | 2.51
EIQSGPG | 7.14
ARSTLQS | > 241
HVRATLQ | > 50
GPQKHSV | > 26
GHDEILQ | 1.69
RERKEPT | 1.27
NHARMTD | 13.5
PNMPASR | 4.89
RAPVLQR | 13.5
RCVPKLQ | > 26
TNVLCTK | 0.143
LTLERTG | 1.09
SSAAAHH | 0.854
SPECLRD | > 36
THGRPMR | 2.93
KGSLNDR | 1.94

Substance | substrate phage enrichment score
CNECAEW | 3.07
AREREAV | 1.75
DQPVRLQ | > 32
YSQGWLQ | > 43
TRYNPAL | 12
ESTLQGN | 17
AHRTQHR | 0.562
SELQSGA | 8.33
GAAHHHH | 1.74
RPPSELG | 1
VPKTKLQ | > 44
ESSRVVS | 1.59
CLQPIKG | 1.88
RPSCRDR | 6.75
RHPYNAL | > 24
TPPVRLQ | 8.17
QRQSHSI | 1.88
PHVSVMK | 5.4
VQDNTAA | 0.0769
YGAAHHH | 0.344
QTRLQCS | > 28
ECDVQWY | 1
AAAKLQS | 101

Substance | substrate phage enrichment score
KQLDSCR | > 98
RNFQGGS | 1
IKYDLKQ | 1.44
KCKCTLQ | > 63
ERLNNCR | 0.0492
ASRPGIF | 12.3
VQLSHPK | 1.1
GAAAHHQ | 0.353
TRRTTKC | 3.62
TVLQAHG | 101
GCRLQSG | > 73
TEQAERL | 2.25
LKSSDLQ | 9
TPVQLRS | > 29
YSENRSR | 0.6
TGCRTVP | 0.154
FDPWDVN | 8.8
DCTPDSK | 1.5
MHPEWGA | 1.8
RTWDANT | 1.39
CGHAHHH | > 32
KTFCDLQ | 11
ICGPASA | > 22

Substance | substrate phage enrichment score
RRSTKLQ | 2.29
TKAAHHH | 1.26
PPLSPLR | 4.6
SGSAAAH | 0.469
ATERRNT | 0.522
CALNHGQ | > 21
DCSQGTN | 1.8
VVVRGLR | 6.33
ATAAHHH | 1
TRSHPSE | 0.833
WVSKGCC | > 24
RNEKMRS | > 29
GLAAHHH | 1
REAAHHH | 1.27
CGPSWEV | 17
ADFQGGS | 2.88
NTRSGMT | > 22
LHTGEVS | > 24
IRCTAVQ | > 32
TLTGGAR | 1.08
YKLNSPG | 15.5
VCLQAVC | 186
SAAAHHY | 1.94
